# Source: paper PMC12040169 (PLOS Biology, 2025)
# The list shows a part of the results.
# Tested on: T1, C. trachomatis L2/434/Bu expressing GFP (CTL2-GFP)
# T1 construct: L2/434/Bu GFP intracellular growth in HeLa cells
# Set-up: species or system HeLa; C. trachomatis total inclusion area by high-content imaging, normalised to DMSO
# Details: total inclusion area; 28.5 h, 10 µM; inhibitor
# Outline: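 High-content images of fixed, Hoechst-stained infected cultures supply inclusion area and count (growth) plus nuclei number (viability), complementing bulk GFP/resorufin fluorescence. MIC determination is unchanged from the primary assay.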
row,Structure (SMILES),% of control remaining
1,CCCCc1ccc(-c2ccc(-c3cc(C(=O)O)c4cc(C)ccc4n3)o2)cc1 [CBK300528],31.1693
2,CN1CCN(c2ncc(-c3ccc(N4CCOCC4)cc3)n3ccnc23)CC1 [CBK091226],85.395
3,Cc1cnc(NC(=O)Cc2ccc(F)cc2)s1 [CBK288249],81.9954
4,COC(=O)c1ccc(NC(=O)N(Cc2cnn(C)c2)CC(C)C)cc1Cl [CBK304387],104.221
5,NC(=O)NC(CC(=O)N1CCOC2CCCCC21)c1cccc(Br)c1 (stereo not shown) [CBK306299],81.5621
6,C=CCNC(=O)[C@@H]1C=CCN1S(=O)(=O)c1ccc(Cl)cc1 [CBK284318],88.7565
7,Cc1[nH]c(=O)[nH]c(=O)c1S(=O)(=O)Nc1ccc(S(N)(=O)=O)cc1 [CBK262123],69.6143
8,COc1ccc(CCNC(=O)N2CCN(c3cc(C(F)(F)F)ccn3)CC2)cc1OC [CBK162330],52.3068
9,COc1ccc(CN2C(=O)CC(c3ccccc3)C2=O)cc1 (stereo not shown) [CBK002055],113.956
10,Cc1ccc2c(c1)c(-c1ccccc1)c(-c1ccccc1)n2CC(O)Cn1cnc(-c2ccccc2)c1-c1ccccc1 (stereo not shown) [CBK262531],128.535
11,O=S(=O)(c1ccc(C(F)(F)F)cc1Cl)N1CCCN(Cc2ccc(F)cc2F)CC1 [CBK062946],102.822
12,O=C(NCO)c1ccccc1O [CBK012717],67.8321
13,CC12CCC(C(=O)O)(C/C1=N\N)C2(C)C (stereo not shown) [CBK265268],117.102
14,Cc1ccc(CCCC(=O)N2CCc3c([nH]c4c(C)cccc34)C23CCN(Cc2ccc(F)cc2)C3)cc1 (stereo not shown) [CBK066979],59.9269
15,Cc1ccc(C(=O)N2CCC(Cc3ccccc3)CC2)cn1 [CBK200179],86.3411
16,CCN1CCN(Cc2c(O)ccc3c(=O)c(-c4ccccc4OC)c(C(F)(F)F)oc23)CC1 [CBK263692],105.454
17,O=S(=O)(Nc1cc(-c2ccco2)n[nH]1)c1ccc(Br)cc1C(F)(F)F [CBK067286],90.904
18,CCc1nn(CC(=O)OC(C)C)c(=O)c2cc3sccc3n12 [CBK284076],96.0242
19,OCc1cccc(-c2cncc(NC3CCC(O)CC3)n2)c1 (stereo not shown) [CBK065448],76.5167
20,COc1ccc2[nH]c(C(=O)O)c(CCC(=O)O)c2c1 [CBK266582],111.051
21,N#Cc1ccc(Cn2cc(C(=O)C(N)=O)c3ccccc32)cc1 [CBK270062],85.2281
22,Nc1nc(-c2ccc(F)cc2)c2c(n1)-c1ccccc1C2=O [CBK287881],75.5691
23,CCn1c(=N)n(CC(=O)O)c2ccccc21 [CBK262906B],96.1183
24,COc1cc(C(=O)N2CCCC3(CCN(C(=O)Cc4c[nH]c5ccccc45)C3)C2)cc(OC)c1OC (stereo not shown) [CBK131601],103.279
25,COc1ncc(-c2cncc(N3CCCN(C)CC3)n2)c(OC)n1 [CBK065286],68.2184
26,FC(F)(F)c1ccc(OC2CCNCC2)nc1 [CBK113287],105.496
27,Cc1ccc(C(=O)CN2CCC3(CC2)NCCc2c3[nH]c3ccc(F)cc23)cc1 [CBK039503],83.1125

row,Structure (SMILES),% of control remaining
1,CC(C)[C@@H](CO)n1c(=O)[nH]c2ncc(-c3cccc(/C=C/C(=O)O)c3)nc21 [CBK065043],106.865
2,CC(C)(Cc1ccccc1)NCC(O)COc1ccc2c(c1)C1CCC2C1 (stereo not shown) [CBK018228C],1.286
3,CN1CC[C@@H]2[C@H]1C(=O)NC[C@H](CCC(=O)NCc1cccs1)N2C [CBK289028],76.2094
4,COCCc1nc(C2CCN(C)CC2)n(Cc2ccccc2C)n1 [CBK307449],88.8444
5,COc1cc(/C=N/c2cccc3c(/N=C/c4ccc(O)c(OC)c4)cccc23)ccc1O [CBK261224],0.8577
6,CC(C)(CO)CNc1cncc(-c2ccccc2CO)n1 [CBK066088],124.602
7,CCN(CC)S(=O)(=O)c1cccc(-n2sc3ccccc3c2=O)c1 [CBK116501],85.1592
8,COc1ccc(Cc2c(C)nc3c(C(=O)NCC4CCCO4)cnn3c2C)cc1 (stereo not shown) [CBK162183],80.3564
9,CCOC(=O)CSc1nc(=O)cc(N)n1Cc1ccc(F)cc1 [CBK269938],81.5349
10,CC(C)[C@H](CO)n1c(=O)[nH]c2ncc(-c3ccco3)nc21 [CBK064479],106.558
11,Cc1c(C(=O)N(C)Cc2cc3ccccc3o2)nnn1C1CCNCC1 [CBK304307C],69.742
12,CSc1ccc(-n2ncc(-c3cccc(C(F)(F)F)c3)n2)cc1 [CBK112666],74.1905
13,Cc1ccc(-n2ncc3c2NC(=O)N2CCN=C32)cc1 [CBK284345],83.9877
14,CC(C)n1c(=O)n(CC(=O)NCc2ccccc2)c2cccnc21 [CBK283758],86.2857
15,O=C(O)c1ccc2[nH]cc(CN3CCOCC3)c2c1 [CBK287081],108.395
16,CC(C)(C)c1cc(CCC(=O)N2CCN(C(=O)CCc3cc(C(C)(C)C)c(O)c(C(C)(C)C)c3)CC2)cc(C(C)(C)C)c1O [CBK261963],73.757
17,c1ccc2c(OCc3nc4c5c6c(sc5ncn4n3)CCCCC6)cccc2c1 [CBK264151],107.793
18,Nc1cccc(-c2cncc(NCC3CCOCC3)n2)c1 [CBK037221],149.977
19,COCCn1c(SCCC(=O)O)nc2c1c(=O)[nH]c(=O)n2C [CBK139751],77.9706
20,Sc1nnc(COc2ccccc2)n1/N=C/c1ccc(-c2ccccc2)cc1 [CBK265269],96.511
21,O=c1c2ccccc2nc(S)n1CC(O)c1ccccc1 (stereo not shown) [CBK288386],40.6774
22,CC1=C(c2ccc(OC(C)(C)CN3CCCC3)cc2)C(C)CCC1 (stereo not shown) [CBK012357C],53.4579
23,Cc1ccc(C2(CN3CCN(Cc4cnc(C)n4C)CC3)CC2)cc1 [CBK282469],103.675
24,O=C(CCc1ccco1)N1CCCC1c1nc2ccccc2[nH]1 (stereo not shown) [CBK283767],80.4806
25,CCCC/C=C/c1cn2ccnc2c(Nc2cccc(OCC(=O)N(C)C)c2)n1 [CBK066185],107.971
26,Cc1cc(C)n(CCCC(=O)N2CCC3(CC2)CC(=O)N(C)C3)n1 [CBK306905],46.8457
27,CC(=O)NC1(c2ccc(F)cc2)CCN(C(=O)C(C)C)CC1 [CBK283491],86.8219

row,Structure (SMILES),% of control remaining
1,COc1ccccc1-c1nccnc1NCCCO [CBK088971],167.398
2,CC(C)(C)c1ccc(C(=O)NC(=S)Nc2ccc(O)c(-c3nc4cc(Cl)ccc4o3)c2)cc1 [CBK264169],121.259
3,CC1CCC(C(=O)NC(Cc2ccccc2)C(=O)O)CC1 (stereo not shown) [CBK287080],99.4622
4,COC(=O)CO[C@@H]1CO[C@H]2[C@@H]1OC[C@@H]2NC(=S)Nc1ccccc1 [CBK289459],113.586
5,COc1ccc(Cl)cc1NS(=O)(=O)N1CCOCC1 [CBK269937],88.2754
6,CS(=O)(=O)c1ccc(-c2ccc(CN3CCN(C(=O)Cc4ccc(F)cc4F)CC3)cn2)cc1 [CBK162618T],55.9572
7,CCc1ccccc1S(=O)(=O)N1CCOC(c2cnn(CC)c2)C1 (stereo not shown) [CBK305421],41.5776
8,Cc1cccnc1NC(=O)C(C)Oc1ccccc1 (stereo not shown) [CBK268643],130.511
9,CC(OC(=O)c1ccc2c(c1)C(=O)N(c1ccc(Cl)cc1)C2=O)C(=O)c1ccccc1 (stereo not shown) [CBK156661],79.9371
10,CCC(CN1CCOCC1)NC(=O)Cc1coc2cc(C)ccc12 (stereo not shown) [CBK282791],64.164
11,COCc1cc(=O)n2ncc(-c3ccccc3)c2[nH]1 [CBK288168],90.7819
12,Cc1nn(C)c(C)c1OCC(=O)Nc1sc2c(c1C#N)CCC2 [CBK306374],3.897
13,Cc1ccccc1C(c1cnccn1)N(C)C(=O)C1CCN(S(=O)(=O)c2cn(C)cn2)CC1 (stereo not shown) [CBK060264],121.644
14,FC(F)(F)c1cc(-c2ccccc2)nc2onc(OCCN3CCOCC3)c12 [CBK269392],95.242
15,Cc1cnn(-c2cc(N3CCC(n4cc(C5CC5)nn4)CC3)ncn2)c1 [CBK306721],60.2341
16,COc1ccc(-c2cnn3c(N)c4c(nc23)CCC4)cc1 [CBK287987],65.8228
17,CN(Cc1nncn1C)C(=O)c1cnc2c(c1)c(C(C)(C)C)nn2C [CBK304154],80.3074
18,COc1ccc(CN(CCCN2CCOCC2)C(=O)NCCCN2CCCC2=O)cc1OC [CBK159180],45.8436
19,CC(C)CCNC(=O)N(CCc1ccccc1)Cc1ccccc1 [CBK155351],100.483
20,COc1ccc(C(=O)Nc2nnc[nH]2)cc1 [CBK025569],130.058
21,CCN(CC)C(=O)c1ccc(NS(=O)(=O)c2cc(F)c(Br)cc2F)cc1 [CBK034388],86.0101
22,COc1ccc(CN(Cc2ccc(OC)cc2)Cc2ccc(S(=O)(=O)N3CCOC3=O)cc2)cc1 [CBK014818],116.759
23,Cc1ccc(S(=O)(=O)N2CC(=O)NC2=S)cc1 [CBK023293],104.264
24,CCCc1[nH]nc(O)c1CCc1c(Cl)cccc1Cl [CBK081403],87.7248
25,CCCCc1ccc(NS(=O)(=O)c2ccc(C)c(C(=O)O)c2)cc1 [CBK296111],110.341
